Source: the supplement of paper PMC7826260
Some of the results follow. Cleavage of a single-stranded DNA pool by Rep nickase domains was read by sequencing for 1 h at 37 °C with 3 µM enzyme; only the middle of the 90-letter strands is printed. Uncut reads are compared with the no-enzyme pool on a log2 scale; more negative means more cut, near 0 not cut, and no call is made. Shares of all reads are compared; where an enzyme cuts many sequences, the uncut ones exceed 0.

Assays:
Test in all cases: uncleaved DNA left, log2 of reads against the no-enzyme library (log2 ratio); higher = less cleavage (more negative = more Rep cleavage of the k-mer); sequences stand for … in CTCGTCCG…ACCGGAGA
[1] = system: T1, Rep nickase domain of Muscovy duck circovirus
T1 sequence (residues 1-111, tag not shown): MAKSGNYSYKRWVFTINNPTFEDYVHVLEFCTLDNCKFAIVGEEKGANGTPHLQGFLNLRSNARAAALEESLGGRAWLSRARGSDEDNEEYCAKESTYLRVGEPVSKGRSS
Protocol: (§1)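 A pool of 90-nt single-stranded DNAs with seven random bases just before the constant AC of the nick site (name = the seven bases) was cut by 3 µM recombinant His6-SUMO-tagged Rep nickase domain (300 nM DNA, 50 mM HEPES pH 8.0, 50 mM NaCl, 1 mM MnCl2, 1 h, 37 °C, three replicates). Uncut DNA was amplified and sequenced.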

[2] = system: T2, Rep nickase domain of banana bunchy top virus
T2 sequence (residues 1-94, tag not shown): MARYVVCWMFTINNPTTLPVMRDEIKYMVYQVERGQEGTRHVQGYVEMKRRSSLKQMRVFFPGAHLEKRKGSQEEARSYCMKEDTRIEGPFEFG
Protocol: as §1

[3] = system: T3, Rep nickase domain of cabbage leaf curl virus
T3 sequence (residues 1-116, tag not shown): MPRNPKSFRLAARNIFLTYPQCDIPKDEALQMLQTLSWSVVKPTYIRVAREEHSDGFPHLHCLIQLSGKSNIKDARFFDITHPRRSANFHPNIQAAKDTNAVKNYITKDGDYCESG
Protocol: as §1

[4] = system: T4, Rep nickase domain of chickpea chlorotic dwarf virus
T4 sequence (residues 1-124, tag not shown): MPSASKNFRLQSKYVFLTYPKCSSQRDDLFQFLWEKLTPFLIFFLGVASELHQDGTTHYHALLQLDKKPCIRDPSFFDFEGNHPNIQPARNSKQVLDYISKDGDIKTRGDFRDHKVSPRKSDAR
Protocol: as §1

[5] = system: T5, Rep nickase domain of faba bean necrotic yellows virus
T5 sequence (residues 1-98, tag not shown): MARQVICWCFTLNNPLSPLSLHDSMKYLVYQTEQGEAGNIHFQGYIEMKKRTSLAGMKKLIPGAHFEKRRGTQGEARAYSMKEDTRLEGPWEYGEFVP
Protocol: as §1

[6] = system: T6, Rep nickase domain of maize striate mosaic virus
T6 sequence (residues 1-117, tag not shown): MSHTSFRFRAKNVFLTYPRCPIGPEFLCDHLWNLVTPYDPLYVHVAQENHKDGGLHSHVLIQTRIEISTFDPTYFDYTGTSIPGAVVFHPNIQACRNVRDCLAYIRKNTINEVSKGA
Protocol: as §1

[7] = system: T7, Rep nickase domain of porcine circovirus 2
T7 sequence (residues 2-116, tag not shown): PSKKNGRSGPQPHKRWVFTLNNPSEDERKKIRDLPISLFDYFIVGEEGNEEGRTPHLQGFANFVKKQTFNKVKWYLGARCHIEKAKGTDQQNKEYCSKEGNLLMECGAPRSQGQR
Protocol: as §1

[8] = system: T8, Rep nickase domain of tomato golden mosaic virus
T8 sequence (residues 1-124, tag not shown): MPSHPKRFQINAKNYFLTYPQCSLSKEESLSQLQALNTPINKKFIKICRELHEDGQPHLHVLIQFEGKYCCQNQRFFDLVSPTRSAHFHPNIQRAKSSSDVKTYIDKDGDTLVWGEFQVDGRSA
Protocol: as §1

[9] = system: T9, Rep nickase domain of tomato yellow leaf curl virus
T9 sequence (residues 1-136, tag not shown): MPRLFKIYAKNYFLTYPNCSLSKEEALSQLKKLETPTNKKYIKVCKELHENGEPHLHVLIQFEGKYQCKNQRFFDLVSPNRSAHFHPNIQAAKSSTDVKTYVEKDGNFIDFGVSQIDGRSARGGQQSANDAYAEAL
Protocol: as §1

[10] = system: T10, Rep nickase domain of wheat dwarf virus
T10 sequence (residues 1-137, tag not shown): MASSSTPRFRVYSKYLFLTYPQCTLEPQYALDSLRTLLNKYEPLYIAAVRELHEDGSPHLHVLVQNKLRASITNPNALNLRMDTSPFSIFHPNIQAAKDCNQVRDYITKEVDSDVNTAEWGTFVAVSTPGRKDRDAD
Protocol: as §1

Row | Sequence | uncleaved DNA left (log2) [1] | uncleaved DNA left (log2) [2] | uncleaved DNA left (log2) [3] | uncleaved DNA left (log2) [4] | uncleaved DNA left (log2) [5] | uncleaved DNA left (log2) [6] | uncleaved DNA left (log2) [7] | uncleaved DNA left (log2) [8] | uncleaved DNA left (log2) [9] | uncleaved DNA left (log2) [10]
1 | GAATGTT | -2.78 | -2.22 | -3.03 | -2.73 | -0.856 | -2.16 | -3.29 | -2.78 | -1.68 | -3.08
2 | TGAGTTA | 0.154 | 0.0368 | 0.217 | -0.216 | 0.0999 | 0.254 | 0.0306 | 0.0778 | 0.181 | 0.0905
3 | CATTTCA | -1.12 | -1.58 | -0.281 | -1.97 | 0.0812 | -0.954 | -1.43 | -0.0181 | 0.135 | 0.0555
4 | ATGAACT | -0.0396 | -0.0141 | -0.153 | -2.2 | 0.02 | -0.241 | -0.475 | 0.0594 | -0.0949 | -0.0349
5 | AACCCGA | -0.0383 | -0.11 | 0.127 | 0.194 | 0.0214 | -0.595 | -0.266 | -0.195 | -0.152 | -0.0458
6 | TCATCGA | 0.0612 | 0.0384 | -0.466 | -0.581 | 0.00727 | -1.03 | 0.181 | 0.0171 | 0.067 | -0.0399
7 | CGAAATG | -0.032 | -0.0319 | -0.122 | 0.513 | -0.0918 | 0.944 | -0.0214 | -0.091 | -0.0226 | 0.0475
8 | ATCGGAC | -0.00728 | -0.0557 | 0.359 | 1.16 | -0.0262 | 1.34 | 0.128 | 0.0254 | 0.00218 | 0.106
9 | ATTAGAA | -0.0517 | -0.0216 | -0.0446 | -0.0842 | 0.00643 | -0.755 | -0.111 | -0.0139 | 0.00725 | -0.0471
10 | AGGCTGA | -0.0273 | 0.00713 | 0.243 | 1.53 | -0.0362 | 1.65 | 0.0568 | 0.0188 | -0.168 | -0.0167
11 | CAGTGGT | -0.0598 | -0.36 | 0.153 | 1.02 | -0.176 | 1.36 | -3.2 | 0.107 | -0.0777 | 0.0259
12 | CTTGGGC | 0.045 | 0.103 | -0.249 | -0.205 | 0.0348 | -0.794 | 0.21 | 0.051 | 0.206 | -0.0293
13 | TGTCCTT | -0.099 | -0.0563 | -0.0545 | -1.14 | -0.186 | 0.461 | -0.536 | -0.206 | -0.0379 | -0.0318
14 | GGCCGCT | 0.156 | 0.0835 | 0.362 | 0.566 | 0.0501 | 0.79 | 0.15 | 0.0957 | 0.116 | 0.188
15 | TCCTCAA | 0.0595 | -0.0495 | -0.0217 | -0.234 | -0.118 | -0.249 | -0.0766 | -0.0539 | 0.064 | -0.026
16 | CATCCGC | 0.0621 | 0.0262 | -0.454 | -0.677 | 0.0324 | -1.2 | 0.0618 | -0.0166 | -0.00495 | -0.0585
17 | GTGCGCG | 0.013 | -0.134 | -0.71 | 0.0333 | -0.0582 | -0.732 | 0.0147 | -0.0894 | -0.014 | -0.19
18 | AAGATGA | 0.00294 | 0.0957 | 0.369 | 1.16 | 0.161 | 1.34 | 0.207 | 0.133 | -0.0496 | 0.0822
19 | AGGCGAA | -0.0555 | -0.122 | -0.122 | -0.0366 | 0.042 | -0.54 | 0.0287 | -0.0546 | -0.0696 | 0.0476
20 | CGACGGT | 0.1 | -0.0918 | 0.0792 | 0.544 | -0.1 | 1.57 | -0.0235 | -0.0341 | -0.0764 | 0.04
21 | CTACTTG | -0.238 | -0.221 | -0.618 | -1.78 | -0.121 | -1.01 | -0.138 | -0.25 | -0.121 | -0.173
22 | CTTTGCA | 0.0103 | -0.0443 | -0.783 | -0.891 | -0.078 | -1.18 | -0.0365 | -0.0727 | 0.101 | -0.0193
23 | GCCAACG | -0.199 | -0.134 | -0.765 | -0.607 | -0.265 | -1.08 | 0.0481 | -0.117 | -0.198 | -0.211
24 | TTTGTAG | 0.0654 | -0.0312 | -0.807 | -0.42 | -0.00858 | -1.23 | 0.188 | 0.05 | 0.0862 | -0.119
25 | CGAGGTG | -0.0436 | -0.13 | -0.258 | 0.0712 | -0.0504 | -0.0792 | 0.0134 | 0.00274 | 0.00417 | -0.125
26 | ATTACGG | 0.0646 | 0.07 | 0.511 | 1.23 | 0.00609 | 1.52 | 0.172 | 0.0535 | -0.0521 | 0.092
27 | GATGACA | 0.0336 | 0.0358 | 0.498 | 0.98 | -0.00223 | 1.63 | 0.107 | 0.00901 | 0.0634 | 0.162
28 | GGGGCTT | 0.0185 | 0.0467 | 0.865 | 1.93 | 0.0348 | 2.25 | 0.203 | 0.0968 | -0.152 | 0.0506
29 | GCAGGGC | 0.0294 | 0.0198 | 0.151 | 0.546 | 0.0418 | -0.0967 | 0.166 | 0.106 | 0.0359 | 0.0173
30 | CATTCAC | -0.0526 | -0.0796 | -0.327 | -0.485 | 0.121 | -1.21 | -0.138 | -0.0311 | 0.00694 | -0.0119
